This is an account of results in EP1598418A1, “STABILISED COMPOSITION FOR FLUORIMETRIC, COLORIMETRIC OR CHEMOLUMINESCENT ASSAYS, KITS CONTAINING SAME AND PRODUCTION METHOD THEREOF” (BIOTOOLS BIOTECHNOLOGICAL & MEDICAL LABORATORIES, S.A., priority 2003, dated 2004).

The experiment has as its system TaqMan probes. The experiment is described as follows: Real-time amplification with desiccated, stabilised reaction mixture with TaqMan probes after storage (Example 2). Also noted: key: Ng, negative results; +, weak positive, under 50% of the activity of the fresh mixture; ++, positive with 50-90% of the activity of the fresh mixture; +++, positive with activity level not less than 90% of the activity of the fresh mixture. To be noted: vs fresh mixture. On the procedure: To test the efficiency of the TaqMan probes included in desiccated and stabilised reaction mixtures, reaction mixtures were prepared for amplification of the same region described for example 1, using the same reagents there described. […] In addition, 1 µl in a concentration of 10mM was added of the primers A1 (^5' -[…]-^3') and 1 microlitre of primer A2 (^5'-[…]-^3') at a concentration of 10µM. Also to each phial was added 1 microlitre of the hydrolysis probe A5 (TaqMan probe: ^5'-FAM […] TAAFTAC-TAMRA-^3') at a concentration of 10mM, containing a FAM group at end 5'and a TAMRA group at locus 3'.
To do so, 50 ng of DNA of each problem sample was added to each tube to a final volume of 20 microlitres. […] In parallel, in order to check the evolution of the activity of the desiccated tubes, DNA samples were amplified using a fresh mixture in the same amplification conditions.
The result of the amplification reaction was analysed in every case by inspecting the fluorescence curve and determining the crossing point, following the instructions of the equipment software, for each reaction tube both fresh and desiccated and stabilised. […] The samples of patients infected with P. falciparum gave positive results in every case, while patients infected with other species gave negative results in every case.

As to `OC[C@H]1O[C@@](CO)(O[C@H]2O[C@H](CO)[C@@H](O)[C@H](O)[C@H]2O)[C@@H](O)[C@@H]1O` [Sucrose], the “activity of stabilising mixtures” value runs as follows: (conserved at T 25 °C) “Ng”; (conserved at T 45 °C) “Ng”.

Take `OCC(O)CO` [Glycerol]: the “activity of stabilising mixtures” value (conserved at T 25 °C) is “Ng” and the “activity of stabilising mixtures” value (conserved at T 45 °C) is “Ng”.

As for `OC[C@H]1O[C@H](O[C@H]2O[C@H](CO)[C@@H](O)[C@H](O)[C@H]2O)[C@H](O)[C@@H](O)[C@@H]1O` [Trehalose], the “activity of stabilising mixtures” value (conserved at T 45 °C) is on record as “Ng”.

With `OC[C@H]1O[C@@](CO)(O[C@H]2O[C@H](CO)[C@@H](O)[C@H](O)[C@H]2O)[C@@H](O[C@H]2O[C@H](CO)[C@@H](O)[C@H](O)[C@H]2O)[C@@H]1O` [Melezitose], the “activity of stabilising mixtures” value runs as follows: (conserved at T 25 °C) “Ng”; (conserved at T 45 °C) “Ng”.

Consider `NCCCC[C@H](N)C(=O)O` [Lysine], for which the “activity of stabilising mixtures” value is listed as “Ng” (conserved at T 25 °C) and “Ng” (conserved at T 45 °C).

As for `OC[C@H]1O[C@H](OC[C@H]2O[C@H](O[C@]3(CO)O[C@H](CO)[C@@H](O)[C@@H]3O)[C@H](O)[C@@H](O)[C@@H]2O)[C@H](O)[C@@H](O)[C@H]1O` [Rafinose], the “activity of stabilising mixtures” value reads like this: (conserved at T 25 °C) “Ng”; (conserved at T 45 °C) “Ng”.

In the case of `OC[C@@H](O)[C@@H](O)[C@H](O)[C@@H](O)CO` [Sorbitol], the “activity of stabilising mixtures” value reads like this: (conserved at T 25 °C) “Ng”; (conserved at T 45 °C) “Ng”.
